*1 amine or outer side, *2 acyl side, *3 side chain or, on linkers, in order; H or OH if unused. Where a SMILES comes first, the peptide text is derived from it. [ ]: non-standard residue; d: D form. The star is where a group is joined. ξ: configuration not given here. Pro(3S,4R-CMe2) = CC1(C)[C@H]2[C@@H](C(=O)O)NC[C@H]21; Pro(3S,4R-methano) = O=C(O)[C@H]1NC[C@@H]2C[C@@H]21; Leuψ(COCO) = CC(C)C[C@H](N[*:1])C(=O)C(=O)[*:2]; ξPro(4R-OtBu) = CC(C)(C)O[C@H]1CNC(C(=O)O)C1; ξPhg(2,3-(OMe)2) = COc1cccc(C(N)C(=O)O)c1OC; Pro(4,4-Me2) = CC1(C)CN[C@H](C(=O)O)C1; X52 = O=C(C(N[*:1])c1cccc2c1OCO2)[*:2]; X12 = CCC[C@H](N[*:1])C(=O)C(=O)[*:2]; Isobutyloxycarbonyl = CC(C)COC(=O)*; Isopropoxycarbonyl = CC(C)OC(=O)*; X4 = CCCCC(N[*:1])C(=O)C(=O)[*:2]; Hyp = O=C(O)[C@@H]1C[C@@H](O)CN1; X2 = CCCC(N[*:1])C(=O)C(=O)[*:2]; Chg = N[C@H](C(=O)O)C1CCCCC1; Phg = N[C@H](C(=O)O)c1ccccc1; Tle = CC(C)(C)[C@H](N)C(=O)O; ξhPhe = NC(CCc1ccccc1)C(=O)O; X75 = NC(=O)CC(N*)c1ccccc1; ξPhg = NC(C(=O)O)c1ccccc1; ξTle = CC(C)(C)C(N)C(=O)O; Carboxymethyl = O=C(O)C*; ξL = CC(C)CC(N)C(=O)O; ξhSer = NC(CCO)C(=O)O; ξV = CC(C)C(N)C(=O)O; Bn = c1ccc(C*)cc1; ξS = NC(CO)C(=O)O; Ms = CS(=O)(=O)*; tBu = CC(C)(C)*

One assay has as its target HCV NS3/NS4A protease (strain 1a) (Hepatitis C virus genotype 1a, UniProt P27958). The assay is described as follows: biochemical. Particulars: Compounds prepared by Solid Phase Synthesis, Table 3; read-out: Ki* CLASS.
As for `CCCC(NC(=O)[C@@H]1C[C@@H](OCC(=O)O)CN1C(=O)C(NC(=O)OCC(C)C)C(C)C)C(=O)C(=O)NCC(=O)NC(CC(C)C)C(N)=O` (some centres unmarked) (Isobutyloxycarbonyl-[ξV][Hyp](Carboxymethyl)[X2]G[ξL]-NH2), the Ki was > 1000 nM.
In the case of `CCCC(NC(=O)[C@@H]1C[C@@H](OCC(=O)O)CN1C(=O)C(NC(=O)OCC(C)C)C(C)C)C(=O)C(=O)NCC(=O)NC(C(N)=O)c1ccccc1` (some centres unmarked) (Isobutyloxycarbonyl-[ξV][Hyp](Carboxymethyl)[X2]G[ξPhg]-NH2), the Ki is > 1000 nM.
Still for that read-out and setting: in the case of `CCCC(NC(=O)[C@@H]1C[C@@H](OCC(=O)O)CN1C(=O)C(NC(=O)OCC(C)C)C(C)C)C(=O)C(=O)NCC(=O)NC(COCc1ccccc1)C(N)=O` (some centres unmarked) (Isobutyloxycarbonyl-[ξV][Hyp](Carboxymethyl)[X2]G[ξS](Bn)-NH2) it was > 1000 nM; in that of `CCCC(NC(=O)[C@@H]1C[C@@H](OCC(=O)O)CN1C(=O)C(NC(=O)OCC(C)C)C(C)C)C(=O)C(=O)NCC(=O)NC(C(N)=O)C(C)(C)C` (some centres unmarked) (Isobutyloxycarbonyl-[ξV][Hyp](Carboxymethyl)[X2]G[ξTle]-NH2), > 1000 nM; in that of `CCCC(NC(=O)[C@@H]1C[C@@H](OCC(=O)O)CN1C(=O)C(NC(=O)OCC(C)C)C(C)C)C(=O)C(=O)NCC(=O)NC(CCc1ccccc1)C(N)=O` (some centres unmarked) (Isobutyloxycarbonyl-[ξV][Hyp](Carboxymethyl)[X2]G[ξhPhe]-NH2), > 1000 nM.
The same measure, in the same setting: under `CCCC(NC(=O)[C@@H]1C[C@@H](OCC(=O)O)CN1C(=O)C(NC(=O)OCC(C)C)C(C)C)C(=O)C(=O)NCC(=O)NC(CCO)C(N)=O` (some centres unmarked) (Isobutyloxycarbonyl-[ξV][Hyp](Carboxymethyl)[X2]G[ξhSer]-NH2) stands > 1000 nM; under `CCCC(NC(=O)[C@@H]1C[C@@H](OC(C)(C)C)CN1C(=O)[C@@H](NC(=O)[C@@H](NS(C)(=O)=O)C(C)C)C1CCCCC1)C(=O)C(=O)NCC(=O)NC(CC(N)=O)c1ccccc1` (some centres unmarked) (Ms-V[Chg][Hyp](tBu)[X2]G-X75), 101 to 1000 nM.
Still for that read-out and setting: in the case of `CCCC(NC(=O)[C@@H]1C[C@@H](OC(C)(C)C)CN1C(=O)[C@@H](NC(=O)[C@@H](NS(C)(=O)=O)C(C)C)C1CCCCC1)C(=O)C(=O)NCC(=O)NC(C(N)=O)c1cccc2c1OCO2` (some centres unmarked) (Ms-V[Chg][Hyp](tBu)[X2]G[X52]-NH2) it was 101 to 1000 nM; in that of `CCCC(NC(=O)[C@@H]1C[C@@H](OC(C)(C)C)CN1C(=O)[C@@H](NC(=O)[C@@H](NS(C)(=O)=O)C(C)C)C1CCCCC1)C(=O)C(=O)NCC(=O)NC(C(N)=O)c1cccc(OC)c1OC` (some centres unmarked) (Ms-V[Chg][Hyp](tBu)[X2]G[ξPhg(2,3-(OMe)2)]-NH2), 101 to 1000 nM.

The assay is the same for the next values; noted with them: Table 4; HCV NS3/NS4A protease, spectrophotometric assay, 30° C., pH 6.5; read-out: Ki* Range.
Regarding `CCCC(NC(=O)C1C[C@@H](OC(C)(C)C)CN1C(=O)[C@@H](NC(=O)OC(C)C)C1CCCCC1)C(=O)C(=O)NCC(=O)N[C@H](C(=O)O)c1ccccc1` (stereo partly drawn) (Isopropoxycarbonyl-[Chg][ξPro(4R-OtBu)][X2]G[Phg]-OH), the Ki lay within 1 to 100 nM.
The same measure, in the same setting: in the case of `CCC[C@H](NC(=O)[C@@H]1[C@H]2C[C@H]2CN1C(=O)[C@@H](NC(=O)OC(C)C)C(C)(C)C)C(=O)C(=O)NCC(=O)N[C@H](C(=O)N(C)C)c1ccccc1` (Isopropoxycarbonyl-[Tle][Pro(3S,4R-methano)][X12]G[Phg]-NMe2) it was 1 to 100 nM.
For `CC(C)C[C@H](NC(=O)[C@@H]1CC(C)(C)CN1C(=O)[C@@H](NC(=O)OC(C)C)C(C)(C)C)C(=O)C(=O)NCC(=O)N[C@H](C(=O)N(C)C)c1ccccc1` (Isopropoxycarbonyl-[Tle][Pro(4,4-Me2)][Leuψ(COCO)]G[Phg]-NMe2), the Ki is 1 to 100 nM.
Same read-out and setting: under `CCCC(NC(=O)[C@@H]1CC(C)(C)CN1C(=O)[C@@H](NC(=O)OC(C)C)C(C)(C)C)C(=O)C(=O)NCC(=O)NC(C(=O)N(C)C)c1ccccc1` (some centres unmarked) (Isopropoxycarbonyl-[Tle][Pro(4,4-Me2)][X2]G[ξPhg]-NMe2) stands 1 to 100 nM.

Staying with this assay, now noted: Table 5; HCV NS3/NS4A protease, spectrophotometric assay, 30° C., pH 6.5; read-out: Ki* Range.
With `CCCCC(NC(=O)[C@@H]1[C@H]2[C@@H](CN1C(=O)[C@@H](NC(=O)OC(C)C)C(C)(C)C)C2(C)C)C(=O)C(=O)NCC(=O)N[C@H](C(=O)N(C)C)c1ccccc1` (stereo partly drawn) (Isopropoxycarbonyl-[Tle][Pro(3S,4R-CMe2)][X4]G[Phg]-NMe2), the Ki lay within 1 to 100 nM.

A word on the Ki: it is the dissociation constant of the complex between target and ligand, obtained from inhibition or displacement.

The record behind these values is patent publication US7592316B2, “Peptides as NS3-serine protease inhibitors of hepatitis C virus” (Schering Corporation, priority 2000, dated 2009).
